Measurements reported in patent US11254689B2, “Compounds” (priority 2017, dated 2022).

System: Mycobacterium tuberculosis H37Rv in human macrophages THP-1
Assay: Mycobacterium tuberculosis in vitro H37Rv in human macrophages THP-1 inhibition assay (intracellular assay)
Conditions: THP-1, intracellular H37Rv in THP-1 macrophages, without the presence of ethionamide

Row | SMILES | IC50
1 | O=C(CCC(F)(F)F)N1CCC2(CC1)CC(OCC(F)(F)F)=NO2 [Example 1, 4,4,4-trifluoro-1-[3-(2,2,2-trifluoroethoxy)-1-oxa-2,8-diazaspiro[4.5]dec-2-en-8-yl]butan-1-one] | < 500 nM
2 | CCCOC1=NOC2(CCN(C(=O)CCC(F)(F)F)CC2)C1 [Example 2, 4,4,4-trifluoro-1-(3-propoxy-1-oxa-2,8-diazaspiro[4.5]dec-2-en-8-yl)butan-1-one] | < 500 nM
3 | CCCCCCOC1=NOC2(CCN(C(=O)CCC(F)(F)F)CC2)C1 [Example 4, 4,4,4-trifluoro-1-(3-hexyloxy-1-oxa-2,8-diazaspiro[4.5]dec-2-en-8-yl)butan-1-one] | < 500 nM
4 | CC1=NOC2(CCN(C(=O)CCC(F)(F)F)CC2)C1 [Example 9, 4,4,4-trifluoro-1-(3-methyl-1-oxa-2,8-diazaspiro[4.5]dec-2-en-8-yl)butan-1-one] | < 500 nM
